The campaign covered roughly 50,000 compounds. About 800 (1.6%) showed an effect of 50% or more. Some of the results follow.
These molecules were tested against Bcl-2-like protein 10 (Homo sapiens) (UniProt Q9HD36) (assay: TR3 peptide-Bcl-B binding displacers, biochemical primary FP assay, phenotype converters (AID 1240;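 also: 0% = Bcl-B with tracer peptide and DMSO and 100% = tracer peptide lacking Bcl-B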)). Conditions: GST-Bcl-B / FITC-TR3 peptide fluorescence polarization; stronger effect = higher value; compound at 3.75 mg/L.
Chain of UniProt Q9HD36 (Q9HD36 whole entry, looked up): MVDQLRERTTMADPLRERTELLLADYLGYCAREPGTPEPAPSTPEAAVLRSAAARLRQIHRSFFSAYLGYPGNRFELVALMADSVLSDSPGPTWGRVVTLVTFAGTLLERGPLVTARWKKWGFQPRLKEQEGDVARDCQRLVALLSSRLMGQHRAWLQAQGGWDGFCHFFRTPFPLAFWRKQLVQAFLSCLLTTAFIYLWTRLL

SMILES	displacement [%]
CCOc1ccccc1NC(=O)c1c(NC(=O)COc2ccccc2)sc2c1CCC2	-6.5
COc1ccc(/C=C/C(=O)Nc2ccccc2C(F)(F)F)cc1Br	11.9
CCCOc1ccc(/C=C2/C(=O)NC(=O)N(c3ccc(OCC)cc3)C2=O)cc1OC	-20.1
N/C(=N/OC(=O)c1ccccc1I)c1nonc1N	-16.3
CC(=O)Nc1ccccc1NC(=O)COc1cccc2ccccc12	-0.3
O=C(CCc1ccccc1)Nc1nc(-c2ccc(Cl)c(Cl)c2)cs1	-5.1
CC(C)n1c(C(O)c2ccc(OCc3ccccc3)cc2)nc2ccccc21 (stereo not given)	-19.8
Cc1ccc(/C=N\NC(=O)c2ccc(O)cc2)cc1	5.9
N#C/C(=C/c1ccccc1[N+](=O)[O-])C(=O)Nc1cccc(Br)c1	-4.9
Cn1c(-c2ccc(-c3nc4cnccc4n3C)cc2)nc2cnccc21	-0.9
Cc1cc(/C=C2\C(=O)NC(=S)N(c3ccccc3F)C2=O)c(C)n1-c1cccc([N+](=O)[O-])c1	43.6
O=C(COc1ccc(Br)cc1)N/N=C/c1ccco1	-1.2
O=C(/C=C/c1ccc2c(c1)OCO2)c1ccc(Br)cc1	10.7
COc1ccccc1CNC(=O)COc1ccc(C)cc1Br	-6.1
Cc1ccc(CN2CCN(N=Cc3cc(Br)ccc3O)CC2)c(C)c1	-5.8
COCCCNC(=O)CN(c1ccc(C)c(Cl)c1)S(C)(=O)=O	-2.2
O=C(Nc1ccc(NC(=O)c2ccccc2[N+](=O)[O-])cc1)c1ccccc1	-7.4
COC(=O)c1ccc(COc2cc3oc(=O)c4c(c3cc2Cl)CCC4)cc1	7.8
CCOCCOC(=O)c1ccc(NC(=O)c2ccccc2C)cc1	-9.3
CCOC(=O)c1ccc2c(c1)C1C=CCC1C(c1cccc([N+](=O)[O-])c1)N2 (stereo not given)	-1
COc1ccc(C(=O)Nc2ccc(O)c(-c3nc4ccccc4s3)c2)cc1[N+](=O)[O-]	-6.2
CNC(=O)C(=O)Nc1cccc(Cl)c1	19.4
O=c1/c(=C\c2ccc(F)cc2)sc2nc(-c3ccc(Cl)cc3Cl)nn12	18.3
Cc1ccc(S(=O)(=O)NCc2cccnc2)c(C)c1	5.4
O=[N+]([O-])c1cc2c(cc1C=Nc1ccc(OC(F)(F)F)cc1)OCO2	19.3
COC(=O)c1c(NC(=O)c2cccc(OC)c2)sc(C)c1C	-0.8
Cc1ccc(C(=O)O/N=C(\N)Cc2ccc(Cl)cc2Cl)cc1[N+](=O)[O-]	3.8

SMILES	displacement [%]
O=C(/C=C/c1cccc(C(F)(F)F)c1)Nc1ccccc1[N+](=O)[O-]	7
COc1ccc(C2CC(C(F)(F)F)n3nc(C(=O)Nc4cc(C)ccc4O)cc3N2)cc1 (stereo not given)	-1.9
S=C(NCCN1CCOCC1)Nc1ccc(Cl)cc1Cl	-2.7
COc1cc([N+](=O)[O-])ccc1-c1ccc(/C=C(/C#N)C(=O)Nc2cccc(Br)c2)o1	92.4
COc1ccc(/C=C(/NC(=O)c2ccccc2)c2nc3ccc(C(F)(F)F)cc3[nH]2)cc1OC	-23.8
COc1ccc(-c2csc(N)c2C(=O)OC(C)C)cc1OC	-0.7
Cc1cccc(NC(=O)C(=O)NCc2ccccc2Cl)c1C	15.9
CC(C)(C)c1ccc(OCC(=O)Nc2cccc(C(=O)Nc3nccs3)c2)cc1	6.7
O=C1OC(c2ccc(Cl)cc2)=C/C1=C\c1cccc([N+](=O)[O-])c1	3.5
Cc1cccc(C=Nc2ccc(-c3nc4ccc(C)cc4s3)cc2)c1	-2.2
Cc1cccc(OCC(=O)N/N=C/c2cccn2-c2ccc([N+](=O)[O-])cc2)c1	8.3
COc1cc(/C=C2\C=C(c3ccc(Cl)cc3)OC2=O)c([N+](=O)[O-])cc1OC	-11.8
Cc1oc2ccc(O)cc2c1-c1ccccc1	9.1
CC(NC(=O)c1ccc([N+](=O)[O-])cc1)C1C2CC3CC(C2)CC1C3 (stereo not given)	-2
CCOC(=O)c1c(-c2ccccc2)oc2ccc(OC(=O)c3ccc(OC)c(OC)c3)cc12	8.8
Cc1ccccc1NC(=O)C(=O)NCc1ccco1	11.3
CCCCOC(=O)c1ccc(NC(=O)c2ccc(I)cc2)cc1	1.6
CCOc1ccc2nc(SCC(=O)Nc3ccc(CC)cc3)sc2c1	-14.2
CC(=O)NC1=NC(=O)/C(=C\c2ccccc2Cl)S1	14
O=C1C(=O)c2ccccc2C(O)=C1CC(=O)c1ccccc1	9
CCc1ccc(NC(=O)C(=O)NCCN2CCN(C(=O)c3ccc(OC)cc3)CC2)cc1	3.6
COc1cccc(NC(=O)c2cc([N+](=O)[O-])ccc2Cl)c1	0.5
COc1ccc(CCN(C(=O)c2ccc(F)cc2)C2=CC3CCC(C2)N3C)cc1OC (stereo not given)	-9.3
CC(Cc1ccccc1)NC(=O)C1COc2ccccc2O1 (stereo not given)	8.2
Cc1ccc(C(=O)NCC(=O)c2ccc(-c3ccccc3)cc2)cc1	-0.2
O=c1/c(=C\c2cccc(Oc3ccc(C(F)(F)F)cc3[N+](=O)[O-])c2)sc2nc3ccccc3n12	0.2
O=C1C=C(NCCc2ccccc2)C2(CCCCC2)O1	0.4

SMILES	displacement [%]
CCN(C(=O)c1ccc(NC(C)=O)cc1)c1ccccc1C	-1.9
O=S1(=O)C[C@H](OS(=O)(=O)c2ccc(Cl)cc2)[C@@H](OS(=O)(=O)c2ccc(Cl)cc2)C1	10.8
C/C(=N/NC(=O)c1c[nH]c2ccccc12)c1cccc(NC(=O)c2ccco2)c1	-3.3
CN(C)c1cccc(NC(=O)Cc2cccc3ccccc23)c1	8.2
O=C(NCCOc1ccc(F)cc1)c1cccc2ccccc12	11
O=C(/C=C/c1cccc([N+](=O)[O-])c1)N1CCN(c2cccc(Cl)c2)CC1	-0.6
CCOC(=O)c1c2c(n(Cc3ccccc3)c1C)C(=O)C(=O)c1ccc(Br)cc1-2	-9.2
CC(C)CNC(=O)CN(c1cccc(C(F)(F)F)c1)S(C)(=O)=O	-10.2
O=C1NC(=S)S/C1=C\c1ccccc1OCc1ccc(Cl)cc1	11.4
CC(=O)C1C(=O)c2ccccc2C1=Nc1ccc2cccnc2c1 (stereo not given)	4.2
O=C(NCCCn1ccnc1)c1cc2c(ccc3ccccc32)oc1=O	8.2
O=C(NC1CCS(=O)(=O)C1)/C(=C\c1ccc(Br)cc1)NC(=O)c1ccccc1 (stereo not given)	1.9
CC1=CC(C)(C)N(C(=O)COc2nc3ccccc3s2)c2ccccc21	-3.5
O=C(Nc1ccccc1)c1ccc(-n2cnnn2)cc1	-6.9
CCc1c(C)nc2c(OC)cccc2c1Cl	11.4
COc1cc(NC(=O)COc2ccc(C)cc2)ccc1NC(=O)c1ccco1	12.4
CCc1ccc(N2C(=O)NC(=O)/C(=C\c3cc(Cl)c(OCC(=O)O)c(Cl)c3)C2=O)cc1	13.1
O=C1/C(=C/c2ccccc2C(F)(F)F)SC(=S)N1c1ccccc1	-6.5
COc1ccccc1N1C(=O)NC(=O)/C(=C\c2ccc(O)c(O)c2)C1=O	7.3
CC12CCC(C(=O)N(c3nccs3)C1=O)C2(C)C (stereo not given)	8.8
CC(NC(=O)COc1ccc(C=C2C(=O)NC(=O)NC2=O)cc1)c1ccccc1 (stereo not given)	7.3
Cc1[nH]n(-c2ccccc2)c(=O)c1/C=N/n1c(C)nc2ccccc2c1=O	-20.1
COC(=O)c1ccc(NC(=O)c2ccc(I)cc2)cc1	-18
COc1ccc(OC)c(N=C(C)C2=C(O)CSC2=O)c1	10.1
O=[N+]([O-])c1cc2c(cc1/C=N/Nc1nc3nonc3nc1Nc1ccc(F)cc1)OCO2	-4.7
CC(=O)Nc1ccc(S(=O)(=O)N2CCC(Cc3ccccc3)CC2)cc1	-3.3
O=C(Nc1ccc(NC(=O)c2cc([N+](=O)[O-])ccc2Cl)cc1)c1ccc(Br)cc1	14.8

SMILES	displacement [%]
O=C(O)c1cccc(NCCC(=O)c2ccccc2)c1	3.1
COc1ccc(N2C(=O)CC(N3CCN(C(c4ccccc4)c4ccc(Cl)cc4)CC3)C2=O)cc1 (stereo not given)	-10.6
Cn1c(=O)c2c(nc(NCCOCCO)n2C)n(C)c1=O	-2.7
COCCOC(=O)c1c(C)oc2ccc(OC(=O)c3cc4ccccc4o3)cc12	10.8
CCN(CC)c1ccc(N2C(=O)/C(=C/c3cccc([N+](=O)[O-])c3)SC2=S)cc1	-6.6
COc1cccc(/C=N/NC(=O)c2ccc(=O)n(C)c2)c1OC	-1.8
CCOc1ccc(N2C(=O)/C(=C/c3ccc(-c4ccc([N+](=O)[O-])cc4OC)o3)C(=O)NC2=S)cc1	-6.5
O=C(Nc1ccc(Cl)c(Cl)c1)c1cc([N+](=O)[O-])ccc1N1CCCCC1	14
CCOc1ccccc1NC(=O)CN(c1ccc(C)cc1)S(=O)(=O)c1ccc(OC)c(OC)c1	17.6
CCCC1=NN2C(=N)/C(=C/c3ccc(-c4ccc([N+](=O)[O-])cc4Br)o3)C(=O)N=C2S1	129
O=C1/C(=C/c2ccc(I)o2)SC(=S)N1c1ccc([N+](=O)[O-])cc1	9.5
CCCCc1c(C)nc2ccc(C(=O)O)cc2c1Cl	1
COc1cc(C2C(C#N)=C(N)SC(N)=C2C#N)ccc1O	-71.7
COc1nc(N/N=C/c2ccccc2F)nc(N2CCCCC2)n1	-3.1
O=C(NC(=S)Nc1cc(C(F)(F)F)ccc1Cl)c1ccc(Cl)cc1	-5.3
N#CCCN(CCc1ccccc1)S(=O)(=O)c1cccc2nsnc12	3.3
CP(C)(=O)CCP(=O)(c1ccccc1)c1ccccc1	4.4
CS(=O)(=O)c1ccc2nc(NC(=O)CCc3ccccc3)sc2c1	6.9
Cc1cc(Br)c(Nc2nc(NN)nc(N3CCOCC3)n2)cc1Cl	3.3
COc1ccc(S(=O)(=O)N(CCc2ccccc2)CC(=O)Nc2cc(OC)ccc2OC)cc1	15.4
Nc1ncc(Cc2ccc(Cl)c(Cl)c2)s1	16.7
COc1ccc(C(=O)Nc2sc(C(=O)OC(C)C)c(C)c2C(=O)OC(C)C)cc1OC	7.2
C=CCOc1c(Br)cc(C2C3=C(CC(C)(C)CC3=O)OC3=C2C(=O)CC(C)(C)C3)cc1OCC	0.2
O=C(Nc1ccc(S(=O)(=O)N2CCCC2)cc1)c1ccc(-c2ccccc2)cc1	5.3

From PubChem BioAssay AID1240 (Sanford-Burnham Center for Chemical Genomics, 2008)
